Assay results as given in the RNAGym collection of RNA variant scans (doi:10.1073/pnas.2313332121).
This sample is rich in variants without activity.

B1: TPR 5TU (parent)
chain: GGAUCUUCUCGAUCUAACAAAAAAGACAAAUCUGCCACAAAGCUUGAGAGCAUCUUCGGAUGCAGAGGCGGCAGCCUUCGGUGGCGCGAUAGCGCCAACGUUCUCAACUAUGACACGCAAAACGCGUGCUCCGUUGAAUGGAGUUUAUCAUG

Variants of: B1
Experiment: polymerase ribozyme fitness, log enrichment relative to wild type (log ratio); higher = more active; in vitro selection for triplet polymerase activity
In short: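 Fitness is a logarithmic measure of how a genotype enriched relative to the wild type, with replicate averages weighted by inverse variance. The logarithm uses base 2, and enrichment came from Illumina sequencing of input and output libraries. Those libraries were PCR-built, transcribed mutants of each subunit of a heterodimeric triplet polymerase ribozyme, passed through one triplicate in vitro selection round that included frozen incubation at −7 °C, gel excision of extended constructs and streptavidin-bead capture. Genotypes were kept only if they had ≥10 input reads and ≥1 read per output.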
In the case of A47G U55A U56A A91U A121G A137C, the “polymerase ribozyme fitness (log ratio)” value is reported as no more than -4.2.
With A47G U90C G92C G128U A137C A147C the “polymerase ribozyme fitness (log ratio)” value was no more than -4.2.
With A47C C51G C87U A89U A107G the “polymerase ribozyme fitness (log ratio)” value was no more than -4.2.
With A47C A89U A150G the “polymerase ribozyme fitness (log ratio)” value was -1.84.
In the case of A47C C54G C87U U102A C132G, the “polymerase ribozyme fitness (log ratio)” value is reported as no more than -4.2.
In the case of A47C C96A, the “polymerase ribozyme fitness (log ratio)” value is reported as -0.697.
In the case of G46C A60G A73C C87A, the “polymerase ribozyme fitness (log ratio)” value is reported as no more than -4.2.
With A47C C69A C87U G100U A121G G143U the “polymerase ribozyme fitness (log ratio)” value was no more than -4.2.
In the case of A47C A150U, the “polymerase ribozyme fitness (log ratio)” value is reported as -0.247.
In the case of G46C U53A C57G C95G, the “polymerase ribozyme fitness (log ratio)” value is reported as no more than -4.2.
In the case of G46C C63A A91G A107U, the “polymerase ribozyme fitness (log ratio)” value is reported as no more than -4.2.
For G46U G59U U78G A147G, the “polymerase ribozyme fitness (log ratio)” value was no more than -4.2.
With G46C A52G G65U C69U U90C A142G the “polymerase ribozyme fitness (log ratio)” value was no more than -4.2.
For A47C G124U, the “polymerase ribozyme fitness (log ratio)” value was -1.09.
With G46C U101G A107U A137C the “polymerase ribozyme fitness (log ratio)” value was -4.12.
With A47G A52G U56C G88A C103G U146C A150G the “polymerase ribozyme fitness (log ratio)” value was no more than -4.2.
In the case of A47C A49C C72A C96U C105G A122U U134A, the “polymerase ribozyme fitness (log ratio)” value is reported as no more than -4.2.
With G46U A52G G92A C114U the “polymerase ribozyme fitness (log ratio)” value was no more than -4.2.
In the case of G46C C57U U61G C75G A119U G141A, the “polymerase ribozyme fitness (log ratio)” value is reported as no more than -4.2.
In the case of G46C G94U C103G C105G G140C, the “polymerase ribozyme fitness (log ratio)” value is reported as no more than -4.2.
In the case of A47C G92A A107G, the “polymerase ribozyme fitness (log ratio)” value is reported as no more than -4.2.
With A47G C51G C76U C87U U104G A107U U151C the “polymerase ribozyme fitness (log ratio)” value was no more than -4.2.
In the case of A47G A49C, the “polymerase ribozyme fitness (log ratio)” value is reported as no more than -4.2.
In the case of G46C A66U U82A C93U G141A, the “polymerase ribozyme fitness (log ratio)” value is reported as no more than -4.2.
In the case of A47C A73C C93G G140U, the “polymerase ribozyme fitness (log ratio)” value is reported as no more than -4.2.
For A47C G84U C85U U102C, the “polymerase ribozyme fitness (log ratio)” value was no more than -4.2.
For G46C A64C G71A C93G A147G, the “polymerase ribozyme fitness (log ratio)” value was no more than -4.2.
In the case of A47C A107U C108A, the “polymerase ribozyme fitness (log ratio)” value is reported as no more than -4.2.
With G46C U53A G58A G94C C95U the “polymerase ribozyme fitness (log ratio)” value was no more than -4.2.
For A47C U78G U102G U127G C129A G136C, the “polymerase ribozyme fitness (log ratio)” value was no more than -4.2.
In the case of A47C G58A A91U A97G C116U U135G G141U G152U, the “polymerase ribozyme fitness (log ratio)” value is reported as no more than -4.2.
With A47C C54A U56A C96G A115U C118A A138G the “polymerase ribozyme fitness (log ratio)” value was no more than -4.2.
For A47C C54U C85G G94U A97C G143U, the “polymerase ribozyme fitness (log ratio)” value was no more than -4.2.
For A47C U56A U78A U90G, the “polymerase ribozyme fitness (log ratio)” value was no more than -4.2.
In the case of A47C G48A G80U G88U, the “polymerase ribozyme fitness (log ratio)” value is reported as no more than -4.2.
For G46C C75A G92A C116A, the “polymerase ribozyme fitness (log ratio)” value was no more than -4.2.
With G46C A60U G70A G94U G140U A150G the “polymerase ribozyme fitness (log ratio)” value was no more than -4.2.
With A47C U56A C57A C79G G88C A150G the “polymerase ribozyme fitness (log ratio)” value was no more than -4.2.
For A47C G50A C149U, the “polymerase ribozyme fitness (log ratio)” value was no more than -4.2.
In the case of A47C G83A G92U A107C C132A, the “polymerase ribozyme fitness (log ratio)” value is reported as no more than -4.2.
For G46U C57U C99A C103U A107U G124C, the “polymerase ribozyme fitness (log ratio)” value was no more than -4.2.
With A47C C63A G83A U90C A115C U145C the “polymerase ribozyme fitness (log ratio)” value was no more than -4.2.
In the case of A47C A91U C95U C129G, the “polymerase ribozyme fitness (log ratio)” value is reported as no more than -4.2.
For G46C C75G G84A C131A U144A, the “polymerase ribozyme fitness (log ratio)” value was no more than -4.2.
In the case of A47C C72G G83U A142G, the “polymerase ribozyme fitness (log ratio)” value is reported as no more than -4.2.
With A47C C57G G58C the “polymerase ribozyme fitness (log ratio)” value was 0.275.
With A47G A60U G86U G100A C108A C125G the “polymerase ribozyme fitness (log ratio)” value was no more than -4.2.
For G46U G83A G143C, the “polymerase ribozyme fitness (log ratio)” value was -4.16.
In the case of A47C A91C U146G U151A, the “polymerase ribozyme fitness (log ratio)” value is reported as no more than -4.2.
In the case of A47C U61A, the “polymerase ribozyme fitness (log ratio)” value is reported as -3.21.
For G46C U55A C96A U104C A106C C114U U148C, the “polymerase ribozyme fitness (log ratio)” value was no more than -4.2.
For A47G G65C G67C G83A C93U A119C A150U, the “polymerase ribozyme fitness (log ratio)” value was no more than -4.2.
With A47C U55A G68C A91C C95A C103U G140U the “polymerase ribozyme fitness (log ratio)” value was no more than -4.2.
For A47C G50C A52C G84C C96U A107U A137C, the “polymerase ribozyme fitness (log ratio)” value was no more than -4.2.
For A47C G59A G62C G67C G68C C99U A107U C114A A121G, the “polymerase ribozyme fitness (log ratio)” value was no more than -4.2.
With A47C C54A C76U C85G A106U G143C the “polymerase ribozyme fitness (log ratio)” value was no more than -4.2.
With G46C U53A G92U U111G U134C the “polymerase ribozyme fitness (log ratio)” value was no more than -4.2.
For G46C A60C C85A G88A A106C A107U G117A G128U U135A U148A, the “polymerase ribozyme fitness (log ratio)” value was no more than -4.2.
In the case of A47G U53A A91U C99U A107G U127G U148A, the “polymerase ribozyme fitness (log ratio)” value is reported as no more than -4.2.
For A47G U90A, the “polymerase ribozyme fitness (log ratio)” value was -3.82.
In the case of A47C G83U C105G C125A, the “polymerase ribozyme fitness (log ratio)” value is reported as no more than -4.2.
For A47C C76G G81A, the “polymerase ribozyme fitness (log ratio)” value was no more than -4.2.
For A47C U53A C79G C93U A115C C125U, the “polymerase ribozyme fitness (log ratio)” value was no more than -4.2.
For A47G G50C C99A G140C G141C A147C, the “polymerase ribozyme fitness (log ratio)” value was no more than -4.2.
In the case of G46U G48C C85G U104G A119G, the “polymerase ribozyme fitness (log ratio)” value is reported as no more than -4.2.
With A47C C57U C79A G94A U151G the “polymerase ribozyme fitness (log ratio)” value was no more than -4.2.
For A47C A91G C93A G141U, the “polymerase ribozyme fitness (log ratio)” value was no more than -4.2.
In the case of G46U A60G G65C U82G C85A U111A C131G, the “polymerase ribozyme fitness (log ratio)” value is reported as no more than -4.2.
With A47C G65U C85A C116G the “polymerase ribozyme fitness (log ratio)” value was no more than -4.2.
In the case of A47C C76U A91C, the “polymerase ribozyme fitness (log ratio)” value is reported as no more than -4.2.
In the case of A47G U61A U78A C93U C105U A106G U144A, the “polymerase ribozyme fitness (log ratio)” value is reported as no more than -4.2.
In the case of A47C U55G A60G C69U A91C G143C, the “polymerase ribozyme fitness (log ratio)” value is reported as no more than -4.2.
With G46C C51G A52U U78G C93G the “polymerase ribozyme fitness (log ratio)” value was no more than -4.2.
For A47C G50A U53G C69G U77A C85A C103G A113G G136C, the “polymerase ribozyme fitness (log ratio)” value was no more than -4.2.
In the case of A47G G59C U61A G92C G141A U148C, the “polymerase ribozyme fitness (log ratio)” value is reported as no more than -4.2.
In the case of G46C G70A C95U G141A, the “polymerase ribozyme fitness (log ratio)” value is reported as no more than -4.2.
For A47G A64C G67C U77G C103G C116G U135A A137G U144C, the “polymerase ribozyme fitness (log ratio)” value was no more than -4.2.
With G46U A120C the “polymerase ribozyme fitness (log ratio)” value was -0.32.
In the case of A47C A49C G83C A120G, the “polymerase ribozyme fitness (log ratio)” value is reported as no more than -4.2.
For A47C C51A C54U U61A C79A C93G C95A C132U C149U, the “polymerase ribozyme fitness (log ratio)” value was no more than -4.2.
With G46U G50C G83A the “polymerase ribozyme fitness (log ratio)” value was no more than -4.2.
With A47C U55A C57A G84U C96U C99U G136A G143C the “polymerase ribozyme fitness (log ratio)” value was no more than -4.2.
With G46C G59C G81A U90G G94C U146A the “polymerase ribozyme fitness (log ratio)” value was no more than -4.2.
With A47U A52G U144G the “polymerase ribozyme fitness (log ratio)” value was 0.507.
